# Laboratory results from publication PMC4336329 (PLoS ONE, 2015).
# Hit rate of the full screen: of about 310,000 compounds, about 14,000 (4.5%) showed an effect of 50% or more. Effects have a minus sign here. The list shows a part of the results.
# Biological target: human ether-à-go-go-related gene (hERG) potassium channel (human, UniProt Q12809)
# Experiment: primary screen, population patch clamp on CHO cells stably expressing hERG
# 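Note: peak tail current of the secondary pulse compared with the same well before compound.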
# human ether-à-go-go-related gene (hERG) potassium channel, sequence (Q12809 whole entry, looked up): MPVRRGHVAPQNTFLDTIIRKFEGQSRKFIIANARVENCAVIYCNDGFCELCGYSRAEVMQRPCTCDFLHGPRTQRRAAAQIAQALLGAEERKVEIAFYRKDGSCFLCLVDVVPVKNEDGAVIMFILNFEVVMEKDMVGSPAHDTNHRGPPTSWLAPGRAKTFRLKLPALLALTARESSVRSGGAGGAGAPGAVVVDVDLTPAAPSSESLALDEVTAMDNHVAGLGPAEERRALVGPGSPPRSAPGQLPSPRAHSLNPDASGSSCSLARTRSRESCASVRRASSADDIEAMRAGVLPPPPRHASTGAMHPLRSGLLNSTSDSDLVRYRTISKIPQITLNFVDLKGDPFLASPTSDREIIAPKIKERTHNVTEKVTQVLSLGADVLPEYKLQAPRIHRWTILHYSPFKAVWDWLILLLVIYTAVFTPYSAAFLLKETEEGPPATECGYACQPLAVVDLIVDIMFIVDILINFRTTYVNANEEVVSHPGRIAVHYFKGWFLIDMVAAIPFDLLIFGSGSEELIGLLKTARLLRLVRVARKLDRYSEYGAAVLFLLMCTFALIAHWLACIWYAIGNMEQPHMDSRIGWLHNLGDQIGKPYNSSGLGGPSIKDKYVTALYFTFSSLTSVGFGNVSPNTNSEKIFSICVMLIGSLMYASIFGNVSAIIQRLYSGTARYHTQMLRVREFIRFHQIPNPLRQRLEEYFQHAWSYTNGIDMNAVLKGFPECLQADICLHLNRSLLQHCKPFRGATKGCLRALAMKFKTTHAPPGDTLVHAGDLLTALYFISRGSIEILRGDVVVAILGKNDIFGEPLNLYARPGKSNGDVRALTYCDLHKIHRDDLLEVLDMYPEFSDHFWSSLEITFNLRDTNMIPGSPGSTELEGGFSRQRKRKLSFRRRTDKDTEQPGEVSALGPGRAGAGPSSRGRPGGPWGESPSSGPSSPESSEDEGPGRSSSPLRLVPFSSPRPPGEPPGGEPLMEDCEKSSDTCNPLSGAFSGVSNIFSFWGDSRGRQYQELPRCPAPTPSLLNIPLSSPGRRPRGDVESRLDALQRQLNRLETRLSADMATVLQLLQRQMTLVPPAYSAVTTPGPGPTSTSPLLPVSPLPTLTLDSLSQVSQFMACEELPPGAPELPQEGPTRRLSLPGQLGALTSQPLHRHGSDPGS
row,SMILES,"hERG current change (%, negative = inhibition) at 10uM [%]"
1,O=C1CCCCN1CCc1c[nH]c2ccccc12,11.8
2,CC(N=C(NC#N)Nc1ccncc1)C(C)(C)C (stereo not drawn),-6.9
3,COc1ccccc1NC(=O)CSc1nnc(NC(=O)C2CCC2)s1,12.9
4,Cc1ccc(OCC(=O)NCC(=O)Nc2ccc(F)cc2)c([N+](=O)[O-])n1,-40.3
5,CCc1ccccc1NC(=O)CCc1c(C)nc(SC)nc1C,10.8
6,O=C(NCc1ccccc1Cl)C(=O)c1cn(CC(=O)N2CCOCC2)c2ccccc12,15.2
7,O=C(CCCCCl)Nc1c2c(nc3ccccc13)CCC2,-23.6
8,CC(=O)Nc1ccc(NCc2ccc(C)s2)cc1,-3.79
9,CC(NC(=O)CN1CCCC1)c1ccccc1 (stereo not drawn),21
10,C=CCN1C(=O)C2(OCCO2)c2cc(C)ccc21,18.1
11,CC(C)NC(=O)c1onc(CSc2cccc3ccccc23)c1C(=O)O,34.5
12,CC(C)CN1CCC(=O)N(CCSc2ccccc2)CC1,-15.4
13,Nc1ccc2c(c1)C(=O)Cc1ccccc1S2,9.05
14,CCc1c(O)nc(SCC(=O)NCc2ccco2)[nH]c1=O,-2.46
15,Cc1ccc2[nH]c(=O)c(CN(CCCN(C)C)C(=O)Nc3ccc(F)cc3)cc2c1,-70.7
16,O=C(Cn1cccc1C(=O)c1ccccc1)NCCCc1ccccc1,-8.33
17,O=C(CCc1ccccc1)NNC(=O)c1cc(Cl)ccc1O,15.1
18,N#C/C(=C(/O)CCl)c1nnc2n1CCCCC2,11.9
19,COc1cccc(CNc2nn[nH]n2)c1OC,13.3
20,CC(C)c1ccc(-c2nc3c([nH]2)c(=O)n(C)c(=O)n3C)cc1,11.2
21,COCCn1c(SCC(=O)N2CCCCC2)nc2c(c1=O)SC(C)C2 (stereo not drawn),9.29
22,C=CCN(CC=C)C(=O)c1ccncc1,1.91
23,CC1(C(=O)NCc2ccc(F)cc2)Oc2ccccc2NC1=O (stereo not drawn),-0.471

row,SMILES,"hERG current change (%, negative = inhibition) at 10uM [%]"
1,COc1cccc(C(=O)Nc2cnn(C(C)C)c2)c1,9.94
2,O=c1c2ccccc2nnn1Cc1ccc(Br)cc1,8.66
3,COc1ccc2[nH]c(C(=O)O)c(CCC(=O)O)c2c1,18.9
4,CC(C)Cc1nc2ccccc2[nH]1,9.74
5,CCC(=O)Nc1cccc(NC(=O)c2ccc(C)cc2Cl)c1,34.5
6,C/C(N)=C(/C#N)C(=O)CSc1nc2ccc(C)cc2[nH]1,10.1
7,CCCCn1c(N)c(N(CCOC)C(=O)COC(=O)CCOc2ccccc2)c(=O)[nH]c1=O,8.12
8,CC1CCCCC1NC(=O)CN1CCN(Cc2ccccc2Cl)C1=O (stereo not drawn),4.48
9,N#Cc1cc(-c2ccc(Cl)cc2)cnc1Sc1ccccc1,5.56
10,Clc1ccc(C2[C@H]3CN(Cc4ccc(-c5ccccc5)cc4)[C@H](c4ccccc4)C34CC2(c2ccccc2)C4)cn1 (stereo partly drawn),0.196
11,COc1cccc(/C=N/Nc2nnc(C)n2N)c1OCc1ccccc1Cl.Cl,6.41
12,Cc1[nH]nc2nc3c(c(OC(=O)c4ccccc4)c12)c(=O)n(C)c(=O)n3C,6.45
13,CCOc1ccccc1NC(=O)/C(C#N)=C/c1cccnc1,6.37
14,Cc1cc(C)c(C(=O)COC(=O)[C@H](C)Nc2ccc(C(F)(F)F)cc2[N+](=O)[O-])c(C)c1,13.1
15,CC(=O)N1CC(=O)Nc2ccc(Br)cc2C1c1ccc(F)cc1 (stereo not drawn),-5.14
16,O=C(O)CC1=C(Nc2ccccc2)C(=O)N(c2ccccc2)C1c1ccc(Br)cc1 (stereo not drawn),25.9
17,COc1ccc(OCCN2C(=O)c3cccc(N)c3C2=O)cc1,11.8
18,Cc1ccc(S(=O)(=O)Nc2ccc(Cl)cc2)cc1NC(=O)c1cc2c(s1)CCCC2,-6.16
19,Cc1ccc(-n2c(CSc3nc(C)cc(C)n3)nnc2SCC(=O)Nc2nccs2)cc1,9.01
20,COc1ccc(OC)c(NC(=O)Nc2nnc(N3CCC(C)CC3)s2)c1,5.07
21,Cc1ccccc1NC(=S)NCc1ccc(Cl)cc1,0.313
22,COc1ccc(CCN2C(=O)C(O)=C(C(=O)c3ccco3)C2c2cccs2)cc1OC (stereo not drawn),21.8
23,O=c1[nH]nc(-c2ccc(F)cc2)cc1Cc1ccccn1,2.44

row,SMILES,"hERG current change (%, negative = inhibition) at 10uM [%]"
1,COc1ccc(N2CCN(C(=O)CN3C(=O)NC(C)(C4CC4)C3=O)CC2)cc1 (stereo not drawn),-0.997
2,CN1CCC2(O)OCCCC2C1 (stereo not drawn),25.9
3,Cc1ccccc1OCCN(C#N)c1nc(N(C)C)nc(N(C)C)n1,-7.31
4,CCN(CC)S(=O)(=O)c1cccc(NC(=O)c2cc3ccccc3o2)c1,-14.8
5,COC(=O)C1=NN(C(=O)c2ccccc2)C(O)(c2ccc([N+](=O)[O-])cc2)C1 (stereo not drawn),-20.2
6,Cc1cc(C)nc(SCC(=O)O)n1,17.7
7,O=C(O)/C=C/C(=O)Nc1ccc(-c2ccccc2)cc1,2.01
8,CNC(=O)C1CCN(S(=O)(=O)c2c(C)noc2/C=C/c2cccc(C)c2)CC1,10.2
9,Cc1cc(C=C2C(=O)c3ccccc3C2=O)c(C)n1C,7.4
10,Cc1ccc2oc(-c3cccc(NC(=O)c4cc(-n5cnnc5)ccc4Cl)c3)nc2c1,10.7
11,Br.NC1=NN=C(c2ccc3c(c2)OCCO3)CS1,21.3
12,COc1ccc(-n2cnc3cc(NS(=O)(=O)c4ccc(C)cc4)ccc32)cc1,-22.2
13,Cc1ccc(N/C=C/c2onc(C)c2[N+](=O)[O-])cc1,4.09
14,O=C(Cn1c(=O)c(C(F)(F)F)nc2ccccc21)N1CCC2(CC1)OCCO2,1.18
15,CCCOc1ccc(CSc2nnc(CCC)n2N)cc1,6.5
16,Cn1c(C(=O)NCc2cccnc2)cc2sccc21,-10.2
17,CC(Oc1cccc(Cl)c1)C(=O)Nc1ccc(S(=O)(=O)Nc2ncccn2)cc1 (stereo not drawn),9.35
18,CC(C)N1CCN(S(=O)(=O)c2ccc3ccccc3c2)CC1.O=C(O)C(=O)O,21.4
19,Cn1cc(C(=O)NCCN2CCN(c3cccc(Cl)c3)CC2)c2c3ccccc3n(C)c2c1=O,-19.2
20,CCc1ccc(C(=O)COC(=O)c2ccc(Cl)nc2)cc1,14
21,O=[N+]([O-])c1cc(C(F)(F)F)cc([N+](=O)[O-])c1NN=C1CCCCC1,0.0396
22,CCCCCOc1ccc(C(=O)NCCC(=O)NCCCC(=O)OCC)cc1,-5.05
23,CCOc1ccc(N2C(=O)S/C(=C\c3cc(OC)c(OC)c(OC)c3)C2=O)cc1,12

row,SMILES,"hERG current change (%, negative = inhibition) at 10uM [%]"
1,CCOc1ccc(C(=O)NC(=S)N2CCN(c3ccc(C(F)(F)F)cc3[N+](=O)[O-])CC2)cc1,-30.5
2,COCCn1c(=NC(=O)c2ccc(S(=O)(=O)N3CCOCC3)cc2)sc2cc(S(N)(=O)=O)ccc21,-10.2
3,COc1ccc(NC(=S)Nc2ccc(OCc3ccccc3)cc2)c(OC)c1,26.8
4,O=C(NCc1ccco1)c1cc(-c2ccncc2)nc2ccccc12,-18.5
5,CC(=O)c1sc2nc(SCC(=O)N3CCCCC3)[nH]c(=O)c2c1C,9.3
6,O=C(CN1C(=O)COc2ccc(S(=O)(=O)N3CCCC3)cc21)NC1CCCCCCC1,7.14
7,Cc1cc(SCC(=O)Nc2c(C)n(C)n(-c3ccccc3)c2=O)nc2ccccc12,-38.7
8,COC(=O)c1c(NC(=O)CC2SCC(C(=O)OC)NC2=O)sc2c1CCCC2 (stereo not drawn),-5
9,CCCN(CCC)C(=S)NC(=O)c1ccc(-c2ccccc2)cc1,-13
10,CN(CC(=O)Nc1ccc(F)c(F)c1F)c1cnccn1,-5.08
11,CC(=O)Nc1ccc(C(=O)OCC(=O)Nc2c(F)cccc2F)cc1,-4.41
12,COCCOc1ccc(C(F)(F)F)cc1NC(=O)c1ccccc1F,3.36
13,Cc1ccc(NC(=O)/C=C\C(=O)NCC(=O)O)cc1C,4.2
14,CC1(C)CC(=O)C(Sc2ccccc2[N+](=O)[O-])=C(O)C1,4.99
15,O=C(O)c1cccc(NC(=O)C2CCCO2)c1 (stereo not drawn),21.8
16,O=C(Nc1cc2c3c(c1)CC(=O)N3CCC2)c1ccccc1Br,0.0128
17,Cc1n(Cc2ccccc2)c2cc([N+](=O)[O-])ccc2[n+]1Cc1ccccc1.[Cl-],21.3
18,CCS(=O)(=O)N1CCN(C2CCC(C)CC2)CC1.O=C(O)C(=O)O (stereo not drawn),-0.633
19,CCN1CCN(Cc2c(C(=O)N/N=C(\C)c3ccc(Cl)cc3)nnn2-c2nonc2N)CC1.Cl,1.12
20,COc1c(C)cc(C(=O)C2CCCN(Cc3ccc(Oc4ncccn4)cc3)C2)cc1C (stereo not drawn),-68.9
21,CCOc1c2ccc(C(=O)NCc3ccco3)cc2nn1CCOC,-0.63
